# In all, about 33,000 sequences were measured (“E-score (-0.5 to 0.5)”: median about -0.054, highest 2% from about 0.35 on). The list shows a part of the results.
# Molecular target: T1, Stb5 (UniProt P38699)
# T1 sequence: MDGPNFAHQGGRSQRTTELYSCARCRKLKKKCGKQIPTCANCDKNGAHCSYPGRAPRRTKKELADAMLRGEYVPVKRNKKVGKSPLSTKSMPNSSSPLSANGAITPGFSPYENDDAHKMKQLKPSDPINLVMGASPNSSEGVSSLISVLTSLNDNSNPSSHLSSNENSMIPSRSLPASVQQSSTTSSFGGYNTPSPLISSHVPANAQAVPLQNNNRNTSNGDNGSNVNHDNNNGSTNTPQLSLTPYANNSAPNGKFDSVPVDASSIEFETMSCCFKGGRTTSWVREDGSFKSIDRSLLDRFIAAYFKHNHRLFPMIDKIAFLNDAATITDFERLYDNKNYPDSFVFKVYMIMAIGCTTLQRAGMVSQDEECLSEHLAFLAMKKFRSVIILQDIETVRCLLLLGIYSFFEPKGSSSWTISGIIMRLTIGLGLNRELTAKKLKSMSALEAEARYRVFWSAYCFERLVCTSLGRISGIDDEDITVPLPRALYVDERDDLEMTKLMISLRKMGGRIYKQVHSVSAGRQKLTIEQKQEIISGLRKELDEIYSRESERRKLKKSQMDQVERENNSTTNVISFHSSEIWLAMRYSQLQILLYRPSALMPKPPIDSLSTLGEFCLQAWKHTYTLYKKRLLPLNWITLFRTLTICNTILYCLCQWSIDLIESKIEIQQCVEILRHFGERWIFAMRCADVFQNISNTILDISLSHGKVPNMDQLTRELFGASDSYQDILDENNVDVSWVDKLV
# Assay: PBM E-score (8-mer binding enrichment) (E-score (-0.5 to 0.5)); higher = stronger / more preferred TF binding; most listed sequences are background and not binding sites
# Conditions: protein concentration: 200 nM; construct: GST-full length
# How it was run: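 Full-length yeast transcription factors or their DNA-binding domains, GST-tagged and expressed with PURExpress, were applied at about 100-200 nM to universal all-10-mer Agilent arrays. These arrays had been made double-stranded by primer extension on fresh or once-stripped slides. Detection used fluorescent anti-GST, normalisation used masliner, and E-scores for ungapped eight-base words pooled with reverse complements came from the Universal PBM Analysis Suite.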
row,Sequence,PBM E-score
1,ACTCTGGA,-0.206
2,CTGAATTC,-0.00247
3,CCTAGAAG,0.00997
4,ATGTTCCA,-0.287
5,AGGCTTCA,-0.0644
6,ACTGGAGG,-0.0702
7,AGATAGTG,-0.036
8,GCTACCAA,-0.0037
9,GCCGCGCC,0.221
10,AAAGCCTG,-0.0993
11,GCGTTGCA,-0.118
12,GCCTCGAA,0.00087
13,TAGGCCTA,-0.235
14,ATAGGGAC,-0.218
15,ATATCATC,-0.0238
16,CTAAACCA,0.0819
17,AATGTGAA,-0.198
18,ACGGATTA,0.0462
19,ACTGCGCT,-0.0575
20,TCGTACCA,-0.0376
21,CCAGTCTC,-0.224
22,GCCAAGCC,0.003
23,CCACCACG,0.0362
24,AACCTCAC,-0.215
25,CTGGGATA,0.0438

row,Sequence,PBM E-score
1,AATGATGA,-0.257
2,TCGTTTAA,-0.278
3,AGAATTTA,-0.0876
4,TCGCGACA,-0.054
5,AAGCATGA,-0.105
6,CTTACCGA,0.0867
7,CCAGGGGA,0.0175
8,GGCGATAC,0.314
9,TCGCAAAA,-0.121
10,TCGCTCAA,-0.192
11,ACCCTGAA,-0.115
12,AGCAACGA,-0.226
13,ATTCATGC,-0.128
14,GTTCGCTA,-0.0984
15,GGCAAGAA,0.134
16,GGGGCACA,-0.0591
17,GAGCAGGA,-0.113
18,GATACGCA,-0.284
19,GTTCTTTA,-0.0238
20,TAAGAACA,-0.0089
21,ACACAGTG,-0.184
22,GATCAACC,-0.121
23,ATTGAGGA,-0.153
24,AAGGGTGG,-0.162
25,ATATATAG,0.21

row,Sequence,PBM E-score
1,AGCCACCA,-0.16
2,ACGTATGC,-0.0892
3,TCTAATAA,-0.12
4,TAGACATA,-0.0673
5,AGACTCAT,-0.315
6,ACTCAGAG,-0.132
7,ATTCGGAA,-0.00284
8,ACGAACCT,-0.14
9,CGCACAAA,-0.0261
10,ATCCAGCG,0.152
11,AGGGTACT,-0.242
12,CTAGTATA,0.036
13,GCACCGTA,0.248
14,GCCTTACC,0.0537
15,AACTACAA,-0.0188
16,AGTTCCGG,0.333
17,AATGATGT,-0.212
18,TGAGTCCA,-0.178
19,GAAGCCTC,-0.166
20,GGTGCGGA,0.236
21,ATCGCGCC,0.224
22,GGAGTAAA,0.16
23,AACAGCTT,-0.244
24,GGTTAGGA,-0.00117
25,CGGAGCGA,0.265

row,Sequence,PBM E-score
1,AACCATAT,0.0532
2,CAAGTGGC,-0.185
3,TCTCAAAA,-0.0375
4,GCCAAGAA,0.0257
5,CGCGCTTC,0.016
6,CGGCTCCC,-0.0984
7,CACCTGAC,-0.141
8,ATAAGCTG,-0.18
9,ATTCGGGG,0.298
10,AGCGCCTA,-0.131
11,CAGCTTTA,-0.121
12,CGGGTGTC,0.00649
13,ACTAGCCA,-0.381
14,AAGACTCC,0.00562
15,AACGTCCC,-0.0635
16,TAAGCCCA,0.0396
17,GAAGTACA,0.0264
18,CACGCTAC,-0.219
19,AAAGGAGC,-0.0913
20,CCAGCTAC,-0.248
21,CGATCGCC,0.0927
22,GAACCTCA,-0.0815
23,ACTGGTGG,-0.239
24,GGGTCGGA,0.348
25,CTATTACA,-0.131

row,Sequence,PBM E-score
1,AAGGGTCC,0.158
2,GTGGACAA,0.00929
3,CGAGTGTC,-0.0644
4,CAGACAAC,0.0416
5,ATGTAACC,0.284
6,CCTACTGA,-0.223
7,ACACGGAG,0.289
8,CTCTTTCC,-0.142
9,ACTCGGTG,0.188
10,AAACTTGG,0.0222
11,ATAGCCTC,0.0787
12,TGTCAACA,-0.114
13,GCCGGATA,0.331
14,GGGTTTCA,0.19
15,GGTCCCGA,0.148
16,CGCGCTAC,0.129
17,AACCAGGA,-0.116
18,TAGCAAAA,0.0942
19,CTACCATA,-0.186
20,CCTAGACC,-0.255
21,GTGACCAC,-0.142
22,AAAAGCTC,-0.0499
23,CGTGTAAA,0.0599
24,CGCCACGC,0.0386
25,CTATAGAG,0.0204

row,Sequence,PBM E-score
1,CCTTGGTC,-0.161
2,AACTCTAT,0.0202
3,AAATTCGT,-0.0784
4,TCCCTGAA,-0.0896
5,CTAGTCTA,-0.286
6,AATCTTTA,0.022
7,CCCGGTAA,0.298
8,ACTACTAA,-0.00102
9,ACCAGTTG,-0.178
10,GGGTGGGA,-0.0256
11,AGAAGGCG,-0.222
12,CTGGATCC,0.118
13,GAACTCTC,-0.21
14,AATACGGT,0.116
15,GATCCTTA,-0.111
16,CACCAAAC,-0.19
17,ACACGCAT,-0.0874
18,ATTACTTG,-0.126
19,ATGCGCTG,0.0133
20,GAGGAACA,-0.015
21,CCCCCCAA,-0.196
22,CCCGTGGA,0.192
23,CTGTGACC,-0.0498
24,GCGCCTAC,0.00541
25,CCGCCGTA,0.381

row,Sequence,PBM E-score
1,ATGCGTTC,-0.0705
2,AACTAGCT,-0.0977
3,GAACGGCC,0.138
4,ATCGGAGA,0.33
5,AGTGCTAG,-0.165
6,AAGTCCTA,0.0926
7,ACCCCGAA,0.37
8,AAACAGGG,-0.189
9,AAAGACGC,-0.0577
10,ACGCTTGC,-0.235
11,ACGATACA,-0.15
12,AATCTGTC,-0.055
13,GTGAACAA,-0.0543
14,ACTACCCC,-0.0759
15,TATCTCCA,0.185
16,CTATACAC,-0.00519
17,CCTGCCAA,-0.251
18,AGAGGACG,-0.135
19,CTACTTGC,0.015
20,AGTGCACG,-0.128
21,CGCCGCAA,0.336
22,CGATTGCC,0.0894

# From the supplement of paper PMC3334620
